Measurements reported in the supplement of paper PMC3334620.
Over roughly 33,000 sequences, “E-score (-0.5 to 0.5)” has its median near -0.012; the highest 2% begin near 0.27. The list shows a part of the results.

Biological target: T1, Vhr1 (UniProt P40522)
T1 sequence: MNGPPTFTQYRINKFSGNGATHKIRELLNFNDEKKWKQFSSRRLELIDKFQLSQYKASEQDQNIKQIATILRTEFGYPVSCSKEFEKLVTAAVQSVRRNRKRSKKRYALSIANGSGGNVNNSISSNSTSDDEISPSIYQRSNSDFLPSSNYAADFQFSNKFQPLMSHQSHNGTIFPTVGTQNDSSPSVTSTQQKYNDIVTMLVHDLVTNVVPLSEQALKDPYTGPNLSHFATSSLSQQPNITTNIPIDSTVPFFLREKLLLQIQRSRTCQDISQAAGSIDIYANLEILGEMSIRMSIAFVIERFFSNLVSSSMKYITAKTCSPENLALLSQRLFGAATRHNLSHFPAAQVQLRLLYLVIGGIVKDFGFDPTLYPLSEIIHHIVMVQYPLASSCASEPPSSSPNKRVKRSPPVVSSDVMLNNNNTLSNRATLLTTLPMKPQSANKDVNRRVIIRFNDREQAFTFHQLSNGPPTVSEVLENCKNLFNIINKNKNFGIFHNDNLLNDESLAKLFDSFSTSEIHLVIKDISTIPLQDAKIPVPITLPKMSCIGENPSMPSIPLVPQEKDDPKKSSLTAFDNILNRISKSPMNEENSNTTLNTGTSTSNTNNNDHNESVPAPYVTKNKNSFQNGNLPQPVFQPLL
Assay: PBM E-score (8-mer binding enrichment) (E-score (-0.5 to 0.5)); higher = stronger / more preferred TF binding; most listed sequences are background and not binding sites
Settings: protein concentration: 200 nM; construct: GST-full length
Outline: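 Detection of bound protein used fluorescent anti-GST, with scans normalised by masliner. The proteins were GST-tagged yeast transcription factors applied at about 100-200 nM to universal all-10-mer Agilent arrays made double-stranded by primer extension. Each ungapped eight-base word, pooled with its reverse complement, was scored with an E-score from the Universal PBM Analysis Suite.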

First: CACTCCCG
Second: CGGACAAG
The “PBM E-score” value of the first is lower: -0.0123 for the first, 0.0244 for the second.

First: CTCTCTGC
Second: ACCCACGT
The “PBM E-score” value of the first is lower: -0.0337 for the first, 0.192 for the second.

Compared with AAACGGTA, ATCGTTGA is higher in “PBM E-score” value: 0.0278 for the first, 0.132 for the second.

First: AGCATTAG
Second: ATCGTCAA
The “PBM E-score” value of the first is higher: -0.077 for the first, -0.0989 for the second.

First: CACCTTAG
Second: ACGGACTC
The “PBM E-score” value of the first is lower: -0.0528 for the first, -0.0189 for the second.

Compared with GCAACCCC, ACTGAGAA is lower in “PBM E-score” value: -0.00688 for the first, -0.0436 for the second.

First: ATGACGAG
Second: ATAAATGG
The “PBM E-score” value of the first is lower: -0.122 for the first, -0.00695 for the second.

First: CGGGATTA
Second: ACATTTAT
The “PBM E-score” value of the first is higher: 0.107 for the first, -0.0139 for the second.

First: GCTCTTTA
Second: CCATTATA
The “PBM E-score” value of the first is lower: -0.1 for the first, 0.0929 for the second.

Going from ATGGTTTA to CTCGTTGC, the “PBM E-score” value rises from 0.0862 to 0.171.

First: TACTGGGA
Second: TGTGTTAA
The “PBM E-score” value of the first is higher: 0.164 for the first, 0.0871 for the second.

Going from AGCGAGGG to CGAAAGAA, the “PBM E-score” value rises from -0.163 to -0.0849.

First: AGTGCGAC
Second: ACCCGAGG
The “PBM E-score” value of the first is higher: 0.0175 for the first, -0.147 for the second.

Compared with CGTCTTGA, AACAGAAA is lower in “PBM E-score” value: -0.0142 for the first, -0.157 for the second.

Going from ACGATGGC to GTACAACA, the “PBM E-score” value rises from 0.0749 to 0.115.

Going from GTACACAA to GCAGGAAC, the “PBM E-score” value falls from 0.15 to -0.1.

Going from CTATGACA to ATACATGC, the “PBM E-score” value rises from 0.123 to 0.194.

Going from CGCGTTCA to CATGCCGG, the “PBM E-score” value rises from 0.0408 to 0.121.

First: ATCAAAGG
Second: ATGAGACC
The “PBM E-score” value of the first is lower: -0.0468 for the first, 0.0789 for the second.

Compared with CAAGGGCA, ACGCCATC is higher in “PBM E-score” value: -0.168 for the first, 0.0312 for the second.

Compared with CCACCGAA, ATTCATGA is higher in “PBM E-score” value: 0.0828 for the first, 0.181 for the second.

First: AATTATCC
Second: ACATGGTA
The “PBM E-score” value of the first is lower: 0.00222 for the first, 0.132 for the second.

First: TACATTAA
Second: AGATTTAG
The “PBM E-score” value of the first is higher: 0.144 for the first, 0.0658 for the second.

Going from CTCTTGTC to ATGGCCAA, the “PBM E-score” value falls from -0.0607 to -0.206.

Going from GTGTAATA to GCGGGCCA, the “PBM E-score” value falls from 0.0802 to 0.0258.

Going from GTGCTTAA to CCAGAAGG, the “PBM E-score” value rises from -0.136 to -0.0621.

Compared with ACATTTTC, GACCTCCC is lower in “PBM E-score” value: 0.0698 for the first, -0.142 for the second.

Going from TAGGATAA to CGCTAACC, the “PBM E-score” value rises from -0.173 to -0.0975.

Going from ATCGTCAC to TCGGGGCA, the “PBM E-score” value falls from 0.163 to -0.0261.

Compared with TCATCGGA, ACCTAATA is lower in “PBM E-score” value: 0.0448 for the first, 0.0232 for the second.

Compared with GGACATGA, ATCCTAAA is lower in “PBM E-score” value: -0.00186 for the first, -0.166 for the second.

Compared with ACAACTAA, ACTGACAA is higher in “PBM E-score” value: 0.0898 for the first, 0.2 for the second.

First: GCAAGTCA
Second: TAGCGACA
The “PBM E-score” value of the first is higher: 0.279 for the first, -0.161 for the second.

Compared with CACCAGAG, AGTTTTAG is lower in “PBM E-score” value: 0.093 for the first, -0.129 for the second.

Going from GTTACTTA to GCGCCCGA, the “PBM E-score” value rises from -0.0888 to 0.153.

Going from AAGACGCA to AGGAAGAC, the “PBM E-score” value falls from -0.0225 to -0.0277.

Compared with ACACGATG, GGTATAAC is lower in “PBM E-score” value: 0.15 for the first, -0.0444 for the second.

First: ATCGGCGC
Second: ACGCCTCA
The “PBM E-score” value of the first is higher: -0.057 for the first, -0.069 for the second.

Going from GCATTAAC to AAATAAGG, the “PBM E-score” value falls from 0.0031 to -0.0132.

Going from AGCTCCAC to GGACGCAC, the “PBM E-score” value rises from -0.0312 to 0.141.

Going from GTAGAATA to TCCACGCA, the “PBM E-score” value falls from 0.123 to -0.129.

Compared with ACGTGACG, CTAGCAAC is higher in “PBM E-score” value: -0.137 for the first, 0.0372 for the second.

Going from CACGGAAA to ATCACAAT, the “PBM E-score” value rises from -0.129 to 0.168.
